For 31 sequences, binding signal (RPM ratio (pull-down/input)) results are on record in paper PMC12820563.

The list shows a part of the results. The list includes weakly bound sequences.

The target in the test is T1, MBP-FoxP3dN (UniProt Q99JB6).
T1 sequence: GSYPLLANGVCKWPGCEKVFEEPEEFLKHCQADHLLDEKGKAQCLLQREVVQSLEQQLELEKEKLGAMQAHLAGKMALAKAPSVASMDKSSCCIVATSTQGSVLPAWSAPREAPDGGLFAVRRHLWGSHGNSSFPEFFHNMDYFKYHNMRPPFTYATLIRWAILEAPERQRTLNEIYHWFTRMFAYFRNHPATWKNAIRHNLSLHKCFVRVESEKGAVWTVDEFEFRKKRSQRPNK
As to the kind of experiment: PD-seq (MBP pull-down with sequencing). The note with it: 20 mM Tris-HCl pH 7.5, 100 mM NaCl, 1.5 mM MgCl2, 0.4 uM protein, 0.1 uM dsDNA library, 30 min, room temperature, amylose pull-down; high values mean tight binding; double strand, one strand shown.
With “GATGATTGTTCTCCCAGCTGATGAATTACTCTGGTCGAGTAAACAAATTTTCCTAATCTTTCTGTTCAAGCGCCATCTAC”, the binding signal (RPM ratio (pull-down/input)) came to 0.228.

Take “GATGATTGTTCTCCCAGCTGATGAATTCACACCATCGAGTAAACAAATTTTCCTAATCTTTCTGTTCAAGCGCCATCTAC”: the binding signal (RPM ratio (pull-down/input)) is 0.505.

For the sequence “GATGATTGTTCTCCCAGCTGATGAATTACCTAGATCGAGTAAACAAATTTTCCTAATCTTTCTGTTCAAGCGCCATCTAC”, the binding signal (RPM ratio (pull-down/input)) turned out to be 0.247.

With “GATGATTGTTCTCCCAGCTGATGAATTAAGTACATCGAGTAAACAAATTTTCCTAATCTTTCTGTTCAAGCGCCATCTAC”, the binding signal (RPM ratio (pull-down/input)) stood at 0.564.

Turning to “GATGATTGTTCTCCCAGCTGATGAATTCGGCACATCGAGTAAACAAATTTTCCTAATCTTTCTGTTCAAGCGCCATCTAC”, the binding signal (RPM ratio (pull-down/input)) stood at 0.778.

In the case of “GATGATTGTTCTCCCAGCTGATGAATTGCCCATATCGAGTAAACAAATTTTCCTAATCTTTCTGTTCAAGCGCCATCTAC”, the binding signal (RPM ratio (pull-down/input)) is 0.654.

With “GATGATTGTTCTCCCAGCTGATGAATTGACTCTTTCGAGTAAACAAATTTTCCTAATCTTTCTGTTCAAGCGCCATCTAC”, the binding signal (RPM ratio (pull-down/input)) came out at 0.427.

As to “GATGATTGTTCTCCCAGCTGATGAATTTAAATGGTCGAGTAAACAAATTTTCCTAATCTTTCTGTTCAAGCGCCATCTAC”, the binding signal (RPM ratio (pull-down/input)) came to 0.498.

In the case of “GATGATTGTTCTCCCAGCTGATGAATTATCAACTTCGAGTAAACAAATTTTCCTAATCTTTCTGTTCAAGCGCCATCTAC”, the binding signal (RPM ratio (pull-down/input)) is 0.411.

On to “GATGATTGTTCTCCCAGCTGATGAATTCCATGCCTCGAGTAAACAAATTTTCCTAATCTTTCTGTTCAAGCGCCATCTAC”, for which the binding signal (RPM ratio (pull-down/input)) was determined as 0.597.

For “GATGATTGTTCTCCCAGCTGATGAATTCCAGATTTCGAGTAAACAAATTTTCCTAATCTTTCTGTTCAAGCGCCATCTAC”, the binding signal (RPM ratio (pull-down/input)) was determined as 0.238.

As to “GATGATTGTTCTCCCAGCTGATGAATTGTTGATATCGAGTAAACAAATTTTCCTAATCTTTCTGTTCAAGCGCCATCTAC”, the binding signal (RPM ratio (pull-down/input)) turned out to be 3.49.

Consider “GATGATTGTTCTCCCAGCTGATGAATTGGGCGATTCGAGTAAACAAATTTTCCTAATCTTTCTGTTCAAGCGCCATCTAC”, for which the binding signal (RPM ratio (pull-down/input)) turned out to be 0.974.

Regarding “GATGATTGTTCTCCCAGCTGATGAATTGGTTCTATCGAGTAAACAAATTTTCCTAATCTTTCTGTTCAAGCGCCATCTAC”, the binding signal (RPM ratio (pull-down/input)) came to 0.37.

Consider “GATGATTGTTCTCCCAGCTGATGAATTCAGGCGATCGAGTAAACAAATTTTCCTAATCTTTCTGTTCAAGCGCCATCTAC”, for which the binding signal (RPM ratio (pull-down/input)) was determined as 0.508.

On to “GATGATTGTTCTCCCAGCTGATGAATTTTCATAATCGAGTAAACAAATTTTCCTAATCTTTCTGTTCAAGCGCCATCTAC”, for which the binding signal (RPM ratio (pull-down/input)) turned out to be 0.381.

Regarding “GATGATTGTTCTCCCAGCTGATGAATTGTTACCCTCGAGTAAACAAATTTTCCTAATCTTTCTGTTCAAGCGCCATCTAC”, the binding signal (RPM ratio (pull-down/input)) worked out at 0.738.

“GATGATTGTTCTCCCAGCTGATGAATTGACGGCCTCGAGTAAACAAATTTTCCTAATCTTTCTGTTCAAGCGCCATCTAC”: the binding signal (RPM ratio (pull-down/input)) was determined as 0.45.

With “GATGATTGTTCTCCCAGCTGATGAATTCCTTGCTTCGAGTAAACAAATTTTCCTAATCTTTCTGTTCAAGCGCCATCTAC”, the binding signal (RPM ratio (pull-down/input)) came to 0.317.

Consider “GATGATTGTTCTCCCAGCTGATGAATTCTTTGGTTCGAGTAAACAAATTTTCCTAATCTTTCTGTTCAAGCGCCATCTAC”, for which the binding signal (RPM ratio (pull-down/input)) amounted to 0.309.

Take “GATGATTGTTCTCCCAGCTGATGAATTAGGAAAATCGAGTAAACAAATTTTCCTAATCTTTCTGTTCAAGCGCCATCTAC”: the binding signal (RPM ratio (pull-down/input)) was found to be 0.151.

For “GATGATTGTTCTCCCAGCTGATGAATTTTTGACCTCGAGTAAACAAATTTTCCTAATCTTTCTGTTCAAGCGCCATCTAC”, the binding signal (RPM ratio (pull-down/input)) turned out to be 0.237.

Regarding “GATGATTGTTCTCCCAGCTGATGAATTTTGACTCTCGAGTAAACAAATTTTCCTAATCTTTCTGTTCAAGCGCCATCTAC”, the binding signal (RPM ratio (pull-down/input)) came out at 2.06.

For “GATGATTGTTCTCCCAGCTGATGAATTACTGAAGTCGAGTAAACAAATTTTCCTAATCTTTCTGTTCAAGCGCCATCTAC”, the binding signal (RPM ratio (pull-down/input)) turned out to be 0.235.

Turning to “GATGATTGTTCTCCCAGCTGATGAATTTTAGGGATCGAGTAAACAAATTTTCCTAATCTTTCTGTTCAAGCGCCATCTAC”, the binding signal (RPM ratio (pull-down/input)) was 0.305.

On to “GATGATTGTTCTCCCAGCTGATGAATTTACCGATTCGAGTAAACAAATTTTCCTAATCTTTCTGTTCAAGCGCCATCTAC”, for which the binding signal (RPM ratio (pull-down/input)) turned out to be 0.399.

For “GATGATTGTTCTCCCAGCTGATGAATTTTTAAGGTCGAGTAAACAAATTTTCCTAATCTTTCTGTTCAAGCGCCATCTAC”, the binding signal (RPM ratio (pull-down/input)) stood at 0.186.

As to “GATGATTGTTCTCCCAGCTGATGAATTAATGCATTCGAGTAAACAAATTTTCCTAATCTTTCTGTTCAAGCGCCATCTAC”, the binding signal (RPM ratio (pull-down/input)) was 6.89.

For “GATGATTGTTCTCCCAGCTGATGAATTGCCAAGTTCGAGTAAACAAATTTTCCTAATCTTTCTGTTCAAGCGCCATCTAC”, the binding signal (RPM ratio (pull-down/input)) was 0.424.

Take “GATGATTGTTCTCCCAGCTGATGAATTGAGTGTGTCGAGTAAACAAATTTTCCTAATCTTTCTGTTCAAGCGCCATCTAC”: the binding signal (RPM ratio (pull-down/input)) turned out to be 1.79.

Turning to “GATGATTGTTCTCCCAGCTGATGAATTCTAGAGATCGAGTAAACAAATTTTCCTAATCTTTCTGTTCAAGCGCCATCTAC”, the binding signal (RPM ratio (pull-down/input)) came to 0.212.
